Measurements as given in the supplement of paper PMC3334620.
In all, about 33,000 sequences were measured (“E-score (-0.5 to 0.5)”: median about -0.035, highest 2% from about 0.34 on). The list shows a part of the results.

The sequences below were run against T1, Mot3 (UniProt P54785) (assay: PBM E-score (8-mer binding enrichment) (E-score (-0.5 to 0.5)); higher = stronger / more preferred TF binding; most listed sequences are background and not binding sites). Details: protein concentration: 200 nM; construct: GST-full length.
T1 sequence: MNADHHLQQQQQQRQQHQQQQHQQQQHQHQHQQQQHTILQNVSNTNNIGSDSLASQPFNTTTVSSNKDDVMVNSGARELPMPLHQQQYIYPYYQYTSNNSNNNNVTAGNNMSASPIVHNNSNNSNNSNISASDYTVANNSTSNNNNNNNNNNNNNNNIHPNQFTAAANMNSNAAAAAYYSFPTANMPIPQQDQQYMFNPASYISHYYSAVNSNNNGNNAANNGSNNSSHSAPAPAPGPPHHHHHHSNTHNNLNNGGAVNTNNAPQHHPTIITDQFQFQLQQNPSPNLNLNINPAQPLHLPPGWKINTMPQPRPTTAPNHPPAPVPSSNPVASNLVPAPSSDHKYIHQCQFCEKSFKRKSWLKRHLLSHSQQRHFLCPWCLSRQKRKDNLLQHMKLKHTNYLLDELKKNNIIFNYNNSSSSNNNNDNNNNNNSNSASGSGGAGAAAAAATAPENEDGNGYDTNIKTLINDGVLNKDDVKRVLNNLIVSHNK
Method in brief: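 Yeast transcription factors carrying a GST tag, as full-length proteins or DNA-binding domains, were produced by PURExpress in vitro transcription/translation. About 100-200 nM protein was applied to universal all-10-mer Agilent arrays, double-stranded by primer extension on fresh or once-stripped slides. Bound protein was detected with fluorescent anti-GST, and scans were normalised with masliner. The Universal PBM Analysis Suite gave each ungapped eight-base word, pooled with its reverse complement, an E-score, a modified Wilcoxon-Mann-Whitney statistic.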

Point of comparison: AAGGCCTT, “PBM E-score” value -0.122. Against it:
- CTTGAATC — higher, 0.0305
- CCGACGAG — higher, -0.0302
- CGGGGCAG — lower, -0.186
- TCATAGCA — higher, -0.00451
- CACCCAAG — higher, -0.117
- GAGAACTA — higher, 0.00221
- CAAGATCC — lower, -0.194
- GTACAGAA — higher, 0.141
- CTCACGCC — lower, -0.258
- AACCCGCC — lower, -0.129
- GGGAGACC — lower, -0.295
- GTGATGTA — higher, 0.296
- GTCGCCCA — lower, -0.253
- ATATAGGG — lower, -0.153
- CACACTGA — higher, -0.0501
- ACACGTAA — higher, 0.316
- TGCCTTAA — higher, 0.471
- CTACTACC — higher, 0.0323
- GGTTAAAA — higher, 0.194
- GCAAGGCC — higher, -0.0626
- CGCTAACG — higher, -0.0607
- TTCTCCAA — higher, -0.0743
- AATTGTTC — higher, 0.11
- TAGTCTAA — higher, -0.0848
- CCGAGCGC — lower, -0.18
- ATATCCAA — higher, 0.00577
- CCTAAACA — higher, 0.215
- AGATGTGG — higher, -0.0703
- AGCATGAC — higher, -0.12
- CTGAGTCC — lower, -0.149
- CTTGTCAC — lower, -0.197
- CGTGGGTA — higher, -0.118
- GAAAGGGC — higher, -0.0854
- AAGACAAG — higher, 0.117
- GCAAGTAC — higher, 0.158
- AATCGATC — higher, -0.051
- CCGGACTC — higher, -0.0654
- AGCTGATG — higher, 0.0117
- CCGAAGCC — lower, -0.279
- CAGTGCGA — higher, -0.0117
- CAGGCTTC — higher, 0.0678
- AATCCCCT — higher, -0.0903
- AATTAGTC — higher, 0.0895
- GCCCAACA — higher, 0.146
- CAGTACAG — higher, -0.00717
- ACAGTAGA — higher, 0.146
- AGGGTACG — higher, 0.117
- ATCCTAGA — lower, -0.14
- ACGTCCCC — higher, -0.0914
- AGTGTGAC — higher, -0.0273
- GGCGCGGA — lower, -0.136
- ATAGTCGG — higher, -0.0977
- CAGTAGGG — higher, -0.00292
- AATGGAAA — lower, -0.154
- CCGGGGAA — the same, -0.122
- CGCGAGCC — lower, -0.129
- CGGCTCAC — lower, -0.251
- GCCGGTCC — lower, -0.432
- GCAGAGAA — higher, -0.0709
- AAAGGATA — higher, -0.0444
- AGCGGTAC — higher, -0.0746
- ATTGAGAG — lower, -0.162
- ACTGGTCA — higher, 0.047
- GATTATAA — higher, -0.0495
- GTCTCAAC — higher, -0.0401
- AGTCCGAT — lower, -0.158
- AATCACAA — higher, 0.0715
- AAGGGCAT — lower, -0.125
- AGCGTCCC — higher, -0.119
- ATGCCAAT — higher, -0.0774
- GAATAAAC — higher, 0.0622
- GTAGGGGA — lower, -0.241
- ATCACCTC — higher, 0.0432
- GCGTGGTA — higher, 0.0907
- ACGAGGAA — higher, 0.164
- ACGCGACT — higher, 0.153
- ACGCGACA — higher, 0.135
- GCACTTTA — higher, 0.0941
- ATCTCGGG — lower, -0.184
- GCAGACCA — lower, -0.251
- ACTCCTGC — higher, -0.119
- AAGCAGAG — higher, 0.0421
- ATCGATAG — higher, 0.0807
- GTTTACCA — higher, 0.149
- CATCTTAG — higher, 0.0012
- CTTGTTAC — higher, 0.158
- ATGGTTAA — higher, 0.133
- GCATCCAA — lower, -0.305
- ATGCGACC — the same, -0.122
- CGACTACC — higher, -0.115
- CAATACGG — higher, -0.103
- CCGTCGCA — lower, -0.251
- ATTGGAGG — lower, -0.295
- ACTAGCTC — higher, 0.051
- GCGCGTCA — higher, 0.0156
- CCGTCTCA — higher, 0.0425
- AATTTATA — higher, 0.189
- CATGAAGG — higher, 0.249
- AGCAAGTG — lower, -0.153
- CATTCGGG — higher, -0.086
- GAGCGGAC — lower, -0.329
- TATATCGA — higher, 0.0267
- ATTCACTA — higher, 0.124
- GTGTACCA — higher, 0.221
- CCAGGACC — lower, -0.277
- CTCGCGTA — higher, 0.174
- GATGTGGC — higher, -0.119
- AGGTAGAC — higher, -0.0113
- ATAGGGTC — higher, -0.0286
- GACTTCTC — higher, 0.0145
- CATTGTCA — higher, 0.0408
- CGAAAGCA — higher, 0.0401
- TGCACCCA — higher, -0.116
- CAACGTGG — higher, 0.0344
- CCAACCCC — higher, 0.0307
- ACCATTAC — higher, 0.168
- CCCTGAGA — lower, -0.294
- ATCCATGC — higher, 0.0613
- CCAACGTA — higher, 0.0662
- GGACAACC — higher, -0.108
- CGAGGCCC — lower, -0.183
- CTAACGAC — higher, -0.0131
- AAGATCCG — lower, -0.156
- GGTTTAGA — lower, -0.146
- ACTGTGCC — higher, 0.265
- ATCTGGGG — lower, -0.276
- AAAGCCCT — lower, -0.155
- GCGTCCCA — lower, -0.196
- TAGTATAA — higher, 0.117
- CGTAAGAC — higher, -0.101
- AACCTCCG — higher, -0.0545
- TGAAACAA — higher, 0.123
- TACGCAGA — higher, 0.236
- CTAGATAA — higher, -0.0624
- ATCCTCTG — lower, -0.271
- AATTGCAT — higher, 0.064
- CCGCGCTA — higher, -0.0745
- ATATCAAT — higher, 0.249
- ACATCTGA — lower, -0.191
- GCGATACA — higher, 0.0872
- ATGGCCCC — lower, -0.199
- CGAAGTAA — higher, 0.174
- ATACGGCA — higher, -0.00914
- AACACTAG — higher, 0.0665
- ACGTGTAT — higher, 0.356
- AAATTTCC — higher, 0.238
- AGTAGGAT — higher, 0.0448
- AGCTGCAT — higher, 0.0096
- CACCTACG — higher, 0.116
- ATACTAGA — higher, 0.00036
- TTCCAAAA — higher, 0.0722
- AACGACTG — lower, -0.211
- CGCGGGTA — higher, 0.0205
- ATGAGTTA — higher, 0.0514
- AGGGATGA — lower, -0.127
- CAGAATTA — higher, -0.0203
- CAGTGGCA — lower, -0.158
- GTTCCATA — lower, -0.157
- CAGCAAGG — higher, -0.017
- GAGGAAGA — lower, -0.167
- ACAAATGT — higher, 0.255
- TAGTTCGA — higher, -0.094
- CTATAAAC — higher, 0.0488
- CTACGCCC — lower, -0.131
- AACGGGAT — lower, -0.147
- CGTTTTAC — higher, 0.213
- AGTAGGGC — higher, -0.043
- CCACCAGG — lower, -0.141
- ACCCTTTG — lower, -0.147
- ATGGTAGG — higher, 0.0523
- GCGCGAAC — lower, -0.147
- ATTGTGCC — higher, 0.152
- AGTGGTAG — lower, -0.184
- CAAAGTCG — higher, 0.0321
- CTTAGGGC — higher, -0.083
- ACCGAAAC — lower, -0.151
- TCCAACGA — higher, -0.066
- CAGTACGA — higher, -0.11
- CTAGATTA — higher, -0.00804
- AATAATAC — higher, 0.254
- CCTGTCTC — lower, -0.191
- AAGTGCAC — higher, -0.0911
- AGATCATG — higher, -0.0646
- ACGCCGGG — lower, -0.276
- ACCCAGCT — lower, -0.186
- CAATGTAG — higher, 0.234
- GACGTAGA — higher, -0.0424
- AGGTCACC — higher, 0.0194
- AGCCAGAG — lower, -0.242
- CTCCGTAC — lower, -0.195
- CGATAAAG — higher, 0.0771
- AGTCATGA — lower, -0.159
- ACACGCTA — higher, 0.356
- GCGACTTA — lower, -0.135
- ACGTCGCC — higher, -0.00307
- ACCGGGGG — lower, -0.265
- GTCCTAAA — higher, 0.125
- ATTAAATC — higher, 0.032
- ATTGATTA — higher, 0.134
- GTATAATA — higher, 0.223
- GTGAGTAA — higher, 0.238
- CGTGTTAC — higher, 0.308
- AGGGCATA — lower, -0.142
- GTGTACAC — higher, 0.344
- TACAGGCA — higher, 0.484
- CATATCGC — lower, -0.144
- GGGGGAAC — lower, -0.175
- ACCTGCAC — higher, 0.0676
- AAACCACG — higher, -0.0678
- CCCGAGAC — lower, -0.284
- GAAATTGC — higher, 0.147
- GGTTACAC — higher, 0.225
- ACACTCGC — higher, -0.104
- ACAGAGAC — higher, -0.0733
- CGCTAAGC — higher, -0.0774
- AGTCATTA — higher, 0.0125
- AGGACTGA — lower, -0.224
- GCCAATCA — lower, -0.23
